The whole screen tested about 310,000 compounds, of which about 11,000 (3.5%) were called active. The inconclusive results got no clear call from the source; some entries with a clear call stand among them for comparison. Calls come from the whole dose curve; as a rule, active = well fitted inhibition curve with a large enough effect; inconclusive = small, poorly fitted or top-dose-only effect, or effect the other way; inactive = flat fitted curve, though single readings scatter. No potency is given beside an inconclusive call; the fits are too rough.
Assay: VP16 counterscreen qHTS for inhibitors of ROR gamma transcriptional activity;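 note: Gal4-VP16 expression switched on by copper sulfate through the metallothionein promoter; nearly all actives have a fitted effect of over 50% in size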
Details: Drosophila S2 Gal4-VP16 UAS-luciferase, luminescence, 20 h; activity, negative = inhibition: at 53.6 µM (top of the series)
In the case of `Cc1ccc2c(c1)c(N=Nc1cccc(C(=O)O)c1)c(O)n2C`, the “activity, negative = inhibition” value is reported as inactive: -3.65%.
With `COc1cc(C(=O)NC(=S)NCc2ccco2)cc(OC)c1OC` the Potency was active: 6.31 µM.
For `Cc1nc(-c2nnc(-c3ccccc3)o2)c(C(F)(F)F)o1`, the Potency was inconclusive [activator, partial curve, poor fit].
For `CCc1ccc(OCc2nc(-c3ccccn3)no2)c(Br)c1`, the Potency was inconclusive [inhibitor, single point].
For `CSc1ccc(S(=O)(=O)NCCOc2ccccc2C)cc1`, the Potency was inconclusive [inhibitor, single point].
With `CCSc1nnc(-c2ccc(S(=O)(=O)N3CCOCC3)cc2)n1C` the “activity, negative = inhibition” value was inactive: 8.17%.
With `CCC(=O)c1ccc(N2CCN(C(=O)Cc3ccccc3)CC2)c(F)c1` the Potency was inconclusive [inhibitor, single point].
In the case of `COC(=O)[C@@]1(Cc2ccccc2)[C@H]2c3cc(C(=O)N(C)C)n(Cc4ccsc4Br)c3C[C@H]2CN1C(=O)c1ccccc1`, the “activity, negative = inhibition” value is reported as inactive: 2.18%.
With `CN(CCc1ccccn1)C(=S)Nc1ccc(Cl)c(Cl)c1` the Potency was inconclusive [inhibitor, single point].
For `Cc1ccc(NC(=O)C2CC2c2ccccc2)cc1` (configuration not stated), the Potency was inconclusive [activator, partial curve].
With `CC1CCN(S(=O)(=O)c2ccc(NC(=O)c3ccncc3)cc2)CC1` the Potency was inconclusive [inhibitor, single point].
With `COc1cccc(C(=O)Nc2nnc(-c3cccs3)s2)c1` the Potency was inconclusive [inhibitor, partial curve, poor fit].
With `CCOC(=O)C(C)(C)N(Cc1cccc(C)c1)S(=O)(=O)c1ccc(Cl)c([N+](=O)[O-])c1` the Potency was inconclusive [inhibitor, single point].
In the case of `CC(C)Oc1cccc(C(=O)NC(=S)Nc2ccc(Cl)c(C(=O)O)c2)c1`, the Potency is reported as inconclusive [inhibitor, partial curve].
In the case of `O=C(Nc1ccc2oc(-c3ccccc3Cl)nc2c1)c1cncc(Br)c1`, the Potency is reported as inconclusive [inhibitor, single point].
For `CCN=C1SC(CC(=O)Nc2sc3c(c2C#N)CCCC3)C(=O)N1CC` (configuration not stated), the Potency was inconclusive [inhibitor, single point].
With `Cc1cc(-c2ccc(N=Nc3c(S(=O)(=O)O)cc4cc(S(=O)(=O)O)cc(N)c4c3O)c(C)c2)ccc1N=Nc1c(S(=O)(=O)O)cc2cc(S(=O)(=O)O)cc(N)c2c1O` the Potency was active: 12.6 µM.
In the case of `Cc1cc(C)n(-c2nc(NCCO)c3c4c(sc3n2)CCCC4)n1`, the Potency is reported as active: 4.47 µM.
For `CSc1nccn1CC(=O)Nc1ccc(F)cc1`, the Potency was inconclusive [inhibitor, single point].
With `CSc1ccccc1OCc1cc(C(=O)N2C[C@H]3CC[C@H]2C3)no1` the Potency was inconclusive [activator, partial curve, poor fit].
For `O=C(O)c1nn(-c2ccccc2)nc1-c1nn(-c2ccccc2)nc1C(=O)O`, the Potency was inconclusive [inhibitor, partial curve, poor fit].
For `Cc1ccc(C(=O)c2ccccc2C(=O)OCC(=O)NCCc2ccc(Cl)cc2Cl)cc1`, the Potency was inconclusive [inhibitor, single point].
In the case of `CN1C(=O)c2ccc(NC(=S)NC(=O)C(C)(C)C)cc2C1=O`, the Potency is reported as inconclusive [inhibitor, single point].
For `COC(=O)c1ccc(NC(=O)c2nc(S(=O)(=O)Cc3cccc(C)c3)ncc2Cl)cc1`, the Potency was active: 4.47 µM.
With `CC1(C)OC(=O)C(=Cc2ccc(-c3ccc(S(N)(=O)=O)cc3)o2)C(=O)O1` the Potency was inconclusive [inhibitor, single point].
With `Cc1c(NC(=S)N/N=C/c2cc([N+](=O)[O-])ccc2O)c(=O)n(-c2ccccc2)n1C` the Potency was inconclusive [inhibitor, single point].
In the case of `O=C(Nc1ccccc1-c1ccccc1)c1cccs1`, the Potency is reported as inconclusive [activator, single point].
With `Cc1ccccc1OCc1nnc(SCC(=O)Nc2ccc3nc(SCC(=O)Nc4ccccc4)sc3c2)n1C` the Potency was inconclusive [inhibitor, single point].
For `O=C1/C(=C\c2ccc3ccccc3c2)CCCc2ccccc21`, the Potency was inconclusive [inhibitor, single point].
With `COc1ccc(-c2noc(CN(C(=O)c3ccoc3C)C(C)C)n2)cc1` the “activity, negative = inhibition” value was inactive: -1.67%.
For `CCCCCN(CCCCC)C(=O)[C@H](CCC(=O)O)NC(=O)[C@H](Cc1ccc(OP(=O)(O)O)cc1)NC(C)=O`, the “activity, negative = inhibition” value was inactive: -1.28%.
For `CC(C)c1ccc(NC(=O)CNS(=O)(=O)c2ccc(F)cc2)cc1`, the “activity, negative = inhibition” value was inactive: -12%.
In the case of `Cc1ccc(N(C(=O)c2ccc(CN3CCOCC3)o2)C(C(=O)NCCC(C)C)c2cccs2)c(C)c1` (configuration not stated), the Potency is reported as inconclusive [inhibitor, partial curve, poor fit].
With `C=C(C)C1CC=C(C)/C(=N\NC(=O)CNc2cccc3ccccc23)C1` (configuration not stated) the Potency was inconclusive [inhibitor, single point].
In the case of `CCNC(=S)N1CCN(c2ccccn2)CC1`, the “activity, negative = inhibition” value is reported as inactive: -2.33%.
For `CCn1cc(C(=O)NC(=S)Nc2sc3c(c2C(=O)OC)CCCCCC3)cn1`, the Potency was inconclusive [inhibitor, single point].
In the case of `COc1ccc(Cl)c(N2CCN(CCCNC(=O)Nc3ccc(C)cc3)CC2)c1`, the “activity, negative = inhibition” value is reported as inactive: -3.79%.
With `CC(=O)Oc1ccc2nc(/C=C/c3ccccc3)oc(=O)c2c1` the Potency was inconclusive [inhibitor, partial curve].
With `Cc1ccc(-c2nn(-c3ccccc3)cc2/C=N/NC(=O)c2ccncc2)o1` the Potency was active: 11.2 µM.
For `COCCNC(=O)COC(=O)CSCc1nc2ccccc2s1`, the Potency was inconclusive [inhibitor, single point].
With `Cc1ccc(S(=O)(=O)NNC(=S)Nc2c(Cl)cccc2Cl)cc1` the Potency was inconclusive [inhibitor, single point].
In the case of `COCCCNCCCOc1ccc(Cl)cc1C(C)(C)C`, the Potency is reported as inconclusive [inhibitor, single point].
% is set by controls: 0 for no effect and ±100 for the full control effect; potency is the fitted concentration of half-maximal effect; tags give direction and shape of the fitted curve.
